Data from PubChem BioAssay AID686978 (National Center for Advancing Translational Sciences (NCATS), 2013).
“And” between values parts separate entries of the source, which are not always exact repeats. Identical values can stand only once. Screen size: about 420,000 compounds; about 64,000 (15%) were called active. The shares of active, inactive and inconclusive entries below differ from those in the screen. The call rests on the fitted dose curve; in most records, active means well fitted inhibition curve with a large enough effect; inconclusive means small, poorly fitted or top-dose-only effect; inactive means flat fitted curve, though single readings scatter. Potencies beside an inconclusive call are fits to weak or partial responses and may not hold up.

Test: qHTS for Inhibitors of human tyrosyl-DNA phosphodiesterase 1 (TDP1): qHTS in cells in absence of CPT; further: nearly all actives have a fitted effect of over 55% in size
Settings: DT40 Tdp1-/- hTDP1 cells, no CPT, ATP luminescence, 48 h; activity change, negative = growth inhibition: at 46.2 µM (top of the series) unless noted
Procedure, shortened: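 Chicken DT40 Tdp1-/- cells complemented with human TDP1, screened without camptothecin (DMSO vehicle only), 400 cells/well. Compounds pin-transferred, cells incubated at 37 °C for at least 48 hr. Growth read as ATP-dependent luminescence (CellTiter-Glo, 30 min at RT).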
On the % scale 0 is the no-effect control and ±100 the full control effect; potency means the concentration at half of the fitted maximal effect; tags describe the fitted curve by direction and shape.

| SMILES | Potency | activity change, negative = growth inhibition |
| --- | --- | --- |
| Cc1cc2c(cc1S(=O)(=O)C(C)CC(=O)NC1CCC(C)CC1)OCC(=O)N2 (centres undefined) | inactive |  |
| OCCC1CN(Cc2ccc(C(F)(F)F)cc2)CCN1Cc1ccccc1 (centres undefined) | inconclusive: 29.1 µM [inhibitor, single point] |  |
| COc1ccc2c(c1OC)C(=O)N1c3ccccc3C(=O)N(c3ccc(F)cc3)C21 (centres undefined) | active: 11.6 µM |  |
| C=CCCC(=O)N1C[C@H]2CON(C)[C@H]2C[C@H]1c1cccc(Nc2ccccc2)c1 | inactive |  |
| CN1C(=O)c2ccc(C(=O)Nc3ccc4c(c3)OCO4)cc2C1=O | inactive |  |
| COc1ccccc1NC(=O)c1sc(-c2ccc(Cl)cc2)cc1N | active: 18.4 µM |  |
| O=C(NCc1cccs1)c1csc([C@@H]2C[C@H](O)[C@@H](CO)O2)n1 | inactive |  |
| CC(C)C(NC(=O)CSCc1ccc([N+](=O)[O-])cc1)C(C)C | inconclusive: 25.9 µM [inhibitor, single point] |  |
| Fc1ccc(Oc2cc(N3CCOCC3)nc(-c3ccccc3)n2)c(F)c1 | inconclusive: 23.1 µM [inhibitor, single point] |  |
| Cc1onc(-c2c(Cl)cccc2Cl)c1C(=O)Nc1ccc(N2CCOCC2)cc1 | inactive |  |
| Cc1ccc(C(=O)N/C(=C/c2ccco2)C(=O)NCCCn2ccnc2)cc1 | inactive |  |
| O=C(Nc1ccccc1C(F)(F)F)c1cc2nc(-c3ccccc3)cc(-c3ccccc3)n2n1 | inactive |  |
| CC1(C)Oc2ccc3ccc(=O)oc3c2C(N2CCCCC2)C1O (centres undefined) | inconclusive: 29.1 µM [inhibitor, single point] |  |
| C[C@]12CC[C@H](O)CC1=CCC1C2CC[C@@]2(C)C1CC[C@@H]2NC(=O)[C@@H](N)Cc1cnc[nH]1 (some centres undefined) | inconclusive: 16.4 µM [inhibitor, single point] |  |
| COc1ccc(C(C[N+](=O)[O-])c2c(-c3ccccc3)cc3ccccn23)c(OC)c1 (centres undefined) | active: 5.17 µM |  |
| O=C(O)CCCC(=O)Nc1ccn(-c2ccccc2)n1 | inconclusive: 23.1 µM [inhibitor, single point] |  |
| Cc1ccc(CNc2nc(N)c([N+](=O)[O-])c(Nc3cccc(F)c3)n2)cc1 | inconclusive: 11.6 µM [inhibitor, partial curve, poor fit] |  |
| Nc1nnc(SCC(=O)NNC(=O)c2ccc([N+](=O)[O-])cc2)s1 | inactive |  |
| CN(C)c1cc(N/N=C/c2ccc(Cl)cc2)nc(N(C)C)n1 | active: 18.4 µM |  |
| COCCN1CCC(CNCc2cn[nH]c2-c2ccc(C)c(C)c2)C1 (centres undefined) | inactive |  |
| O=C(Nc1ccc(-c2csc(-c3ccccc3)n2)cc1)c1ccccc1 | inconclusive: 11.6 µM [inhibitor, partial curve] |  |
| CCOP1(=O)OCC2OC(n3cnc4c(N)ncnc43)C(O)C2O1 (centres undefined) | inactive |  |
| Cc1ccc(NC(=O)C2CCN(S(=O)(=O)c3ccc(C(C)(C)C)cc3)CC2)cc1S(=O)(=O)N1CCOCC1 | inconclusive: 18.4 µM [inhibitor, partial curve] |  |
| CCOc1ccc(N(CC(=O)NCCC2=CCCCC2)S(=O)(=O)c2ccccc2)cc1 | inconclusive: 18.4 µM [inhibitor, single point] |  |
| CCOc1ncccc1C(=O)Nc1ccc(S(=O)(=O)NC2=NCCCCC2)cc1 | inactive |  |

| SMILES | Potency | activity change, negative = growth inhibition |
| --- | --- | --- |
| O=C(COC(=O)c1ccc(Cl)nc1)Nc1ccc(N2CCOCC2)cc1 | inactive |  |
| CN(C)CCOC(=O)C12CC3(C)CC(C)(CC(C)(C3)C1)C2 | inactive |  |
| COc1ccc(OC)c(C(=O)c2coc3ccc(OC)cc23)c1 | inconclusive: 23.1 µM [inhibitor, single point] |  |
| C=CCn1c(Cc2csc(N)n2)nnc1SCC(=O)OCC | inactive |  |
| CCCC1(c2ccccc2)NC(=O)N(CC(=O)NCc2ccc(C)cc2)C1=O (centres undefined) |  | inconclusive: -33.5% [inhibitor] |
| O=C(CN1C(=O)C(=O)c2ccccc21)NCCc1ccccc1 | inconclusive: 18.4 µM [inhibitor, single point] |  |
| CCc1ccc(NC(=O)c2sc(-n3nc(C)c(Cc4ccc5c(c4)OCO5)c3C)nc2C)cc1 | inactive |  |
| O=c1cc(CN2CCN(Cc3ccc(F)cc3)C(CCO)C2)[nH]c2ccccc12 (centres undefined) | inactive |  |
| COC(=O)c1cc(OCC(=O)Nc2ccc3c(c2)CCC3)cc(C(=O)OC)c1 | inactive |  |
| CCOc1ccccc1NC(=O)c1cc(C(=O)Nc2ccccc2OCC)cc(N2C(=O)CCC2=O)c1 | inactive |  |
| CCOC(=O)CN1C(=O)C(O)(CC(=O)c2ccccn2)c2ccccc21 (centres undefined) | active: 4.11 µM |  |
| NS(=O)(=O)c1cccc(NC(=O)COC(=O)C2(c3cccc(F)c3)CCCC2)c1 | inconclusive: 16.4 µM [inhibitor, single point] |  |
| Cc1ccc(C(c2nnnn2CC2CCCO2)N2CCN(c3cccc(C)c3C)CC2)cc1 (centres undefined) | active: 23.1 µM |  |
| Cc1ccc(O)c(C(=O)c2cnc3c(c2)c(C)nn3C)c1 | inconclusive: 20.6 µM [inhibitor, single point] |  |
| O=C(OC(C(=O)c1c[nH]c2ccccc12)c1ccccc1)c1cnccn1 (centres undefined) | inactive |  |
| Cc1ccc2c(c1)nnn2C1CCN(S(=O)(=O)c2ccc3ccccc3c2)CC1 | inconclusive: 23.1 µM [inhibitor, single point] |  |
| CC1CCN(C(=O)c2ccc(CSc3ccc(Cl)cc3)cc2)CC1 | active: 16.4 µM |  |
| Cc1ccc(S(=O)(=O)N2CCN(C(=O)N3CCOCC3)C2C)cc1 (centres undefined) | inactive |  |
| Cc1cc(Cl)ccc1OC(C)C(=O)Nc1cccc(S(=O)(=O)N2CCOCC2)c1 (centres undefined) | inconclusive: 29.1 µM [inhibitor, single point] |  |
| Cc1[nH]c2ccccc2c1SCc1nnc(SCc2ccccc2)n1C | inconclusive: 29.1 µM [inhibitor, partial curve] |  |
| CC(C)CNC(=O)C(=O)Nc1ccc2c(c1)N(S(=O)(=O)c1cccs1)CCC2 | inconclusive: 23.1 µM [inhibitor, single point] |  |
| CC(C)CNC(C(=O)Nc1ccc([N+](=O)[O-])cc1Br)c1ccccc1 (centres undefined) | inactive |  |
| Cn1c(=O)[nH]c(=O)c2c1nc(NN)n2CCOc1ccccc1 | inconclusive: 16.4 µM [inhibitor, partial curve, poor fit] |  |
| Cc1cccc(-n2ncc3c(N4CCC5(CC4)OCCO5)ncnc32)c1 | inconclusive: 29.1 µM [inhibitor, single point] |  |
| Cc1ccccc1-c1cc2nc(Oc3ccc4c(c3)OCO4)n(C)c(=O)c2s1 | inconclusive: 18.4 µM [inhibitor, single point] |  |

| SMILES | Potency | activity change, negative = growth inhibition |
| --- | --- | --- |
| CCOP(=O)(C1=C(O)C(=O)C(C(C)(C)C)=CC1=O)c1ccccc1 (centres undefined) | inactive |  |
| CCOc1ccccc1NC(=O)Cn1c(=O)n(-c2ccc(C)c(C)c2)c(=O)c2oc3ccccc3c21 | inconclusive: 11.6 µM [inhibitor, partial curve] |  |
| COc1ccc2oc(=N)c(C(=O)Nc3ccccc3Cl)cc2c1 | inactive |  |
| CC(C)(C)NC(=O)C(=O)NCCC1=CCCCC1 | inconclusive: 25.9 µM [inhibitor, single point] |  |
| C=C(C)Cn1c(C)cc(C)c(S(=O)(=O)c2cccc(C)c2)c1=O | inactive |  |
| CC(C)(C)OC(=O)N1CCC2(CC1)Oc1ccc(Cl)cc1C(=O)C21CC(c2ccc(Cl)cc2)=NO1 (centres undefined) | inconclusive: 16.4 µM [inhibitor, partial curve, poor fit] |  |
| CCN(CC)CCNC(=O)/C(=C/c1cn(C)c2ccccc12)NC(=O)c1ccc(OC)c(OC)c1 | inconclusive: 14.6 µM [inhibitor, partial curve, poor fit] |  |
| CCN(Cc1ccccc1)C(=O)COC(=O)c1c(C)nsc1NC | active: 20.6 µM |  |
| O=C(COC(=O)Cc1ccc(Br)cc1)NCc1ccc(F)cc1 | inactive |  |
| COc1cc(-c2cc(NC(C)=O)c3ncc(-c4ccc(F)cc4)n3c2)cc(OC)c1OC | active: 14.6 µM |  |
| CC(C)Cn1cnc2c(N)nc3ccccc3c21 | inactive and inconclusive: 6.68 µM [inhibitor, full curve, poor fit] |  |
| Cc1ccc(CSCC(=O)Nc2ccccc2F)cc1 | inactive |  |
| COC(=O)c1ccc(NC(=O)C(=O)c2cccn2C)cc1 | inconclusive: 29.1 µM [inhibitor, single point] |  |
| CCN(c1cccc(C)c1)S(=O)(=O)c1cccc2nsnc12 | inconclusive: 20.6 µM [inhibitor, single point] |  |
| CCCNC(=O)c1ccc(Cn2cc(-c3ccc(OC)cc3)nc2C(C)N)cc1 (centres undefined) | inactive |  |
| COc1ccc(Br)cc1/C=C/C(=O)Nc1ccc2ccccc2c1 | inconclusive: 25.9 µM [inhibitor, single point] |  |
| Cc1ccc2nc(-c3cccc(NC(=O)CSc4ccc(Cl)cc4)c3)oc2c1 | active: 9.2 µM |  |
| CCNc1ncc2nc(C)c(=O)n(CCc3ccccc3)c2n1 | inconclusive: 16.4 µM [inhibitor, partial curve, poor fit] |  |
| O=c1c2c3nc4ccccc4nc3n(/N=C/c3ccccn3)c2ncn1-c1ccccc1 | inconclusive: 5.8 µM [inhibitor, full curve, poor fit] |  |
| O=C(CN1CCC(n2nnc3cc(F)ccc32)CC1)NC1CCCCC1 | inactive |  |
| Cc1ccc(/C=C/C(=O)NC(=S)Nc2ccccc2C(=O)NC2CCCCC2)cc1 | active: 11.6 µM |  |
| CCCCc1nc2cc(C(=O)N(C)C(C)c3ccccn3)ccc2o1 (centres undefined) | inconclusive: 2.31 µM [inhibitor, full curve] |  |
| Cc1ccc(-c2nnn(CC(=O)Nc3cccc4cccnc34)n2)o1 | inconclusive: 20.6 µM [inhibitor, single point] |  |
| O=C(Nc1nc(-c2ccccc2)cs1)c1ccc2c(c1)S(=O)(=O)c1ccccc1C2=O | inconclusive: 29.1 µM [inhibitor, single point] |  |
